Reference: PMC9911399, “Two distinct binding modes provide the RNA-binding protein RbFox with extraordinary sequence specificity”
Positions count from the first letter of the chain named. This is one part of the list.

T1: RBFOX1 RRM (Homo sapiens, UniProt Q9NWB1 109-208)
T1 sequence: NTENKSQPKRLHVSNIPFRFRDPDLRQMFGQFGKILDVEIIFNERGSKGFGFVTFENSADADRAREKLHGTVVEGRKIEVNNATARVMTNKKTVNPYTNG

B1: CGCCCAG (DNA:RNA)
RNA: GGGAGACCGGAAUUCAGAUUGUCCCGCCCAGUUAAAUCCCGUCGUAGCCACCA
DNA 1: CAATCTGAATTCCGGTCTCCC
DNA 2: TGGTGGCTACGACGGGATT
B2: CUACCUU (DNA:RNA)
RNA: B1 RNA with G26U, C27A, A30U, G31U
DNA 1: CAATCTGAATTCCGGTCTCCC
DNA 2: TGGTGGCTACGACGGGATT
B3: AUCCAAG (DNA:RNA)
RNA: B1 RNA with C25A, G26U, C29A
DNA 1: CAATCTGAATTCCGGTCTCCC
DNA 2: TGGTGGCTACGACGGGATT
B4: AUCUUCC (DNA:RNA)
RNA: B1 RNA with C25A, G26U, C28U, C29U, A30C, G31C
DNA 1: CAATCTGAATTCCGGTCTCCC
DNA 2: TGGTGGCTACGACGGGATT
B5: UUCGCGA (DNA:RNA)
RNA: B1 RNA with C25U, G26U, C28G, A30G, G31A
DNA 1: CAATCTGAATTCCGGTCTCCC
DNA 2: TGGTGGCTACGACGGGATT
B6: AUUACUG (DNA:RNA)
RNA: B1 RNA with C25A, G26U, C27U, C28A, A30U
DNA 1: CAATCTGAATTCCGGTCTCCC
DNA 2: TGGTGGCTACGACGGGATT
B7: CCCACGG (DNA:RNA)
RNA: B1 RNA with G26C, C28A, A30G
DNA 1: CAATCTGAATTCCGGTCTCCC
DNA 2: TGGTGGCTACGACGGGATT
B8: CAUAGAG (DNA:RNA)
RNA: B1 RNA with G26A, C27U, C28A, C29G
DNA 1: CAATCTGAATTCCGGTCTCCC
DNA 2: TGGTGGCTACGACGGGATT
B9: UUGUAAU (DNA:RNA)
RNA: B1 RNA with C25U, G26U, C27G, C28U, C29A, G31U
DNA 1: CAATCTGAATTCCGGTCTCCC
DNA 2: TGGTGGCTACGACGGGATT

The binders below were run against T1, RBFOX1 RRM (assay: EMSA; HiTS-Eq, 1 nM pool, 10 min; buffer printed only for the single-RNA assays: 10 mM Tris pH 7.5, 150 mM NaCl, 3.4 mM EDTA, 0.001% NP-40, 30 C). Conditions: tags: His6 N-terminal (pET28a); label: 5' 32P.
In short: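 A pool of RNA with 7 randomized nucleotides, 5′-radiolabelled and with DNA-annealed flanks, was equilibrated at 1 nM for 10 min in 50 µL with purified RbFox RRM, wild type or mutant, across increasing protein concentrations. Free RNA was separated by 8% native PAGE, excised, reverse-transcribed, barcoded by PCR and sequenced. Relative association constants were obtained from read-count changes of each RNA species versus the control reaction and normalised to the cognate motif.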
For B1, the binding signal was 0.00592 KA relative to UGCAUGU.
For B2, the binding signal was 0.00302 KA relative to UGCAUGU.
In the case of B3, the binding signal is reported as 0.000223 KA relative to UGCAUGU.
B4 was tested, and the binding signal was 0.00367 KA relative to UGCAUGU.
In the case of B5, the binding signal is reported as 0.0161 KA relative to UGCAUGU.
B6 was tested, and the binding signal was 0.0108 KA relative to UGCAUGU.
B7 was tested, and the binding signal was 0.00884 KA relative to UGCAUGU.
With B8 the binding signal was 0.00555 KA relative to UGCAUGU.
For B9, the binding signal was 0.00855 KA relative to UGCAUGU.
